# PubChem BioAssay AID1508623 (National Center for Advancing Translational Sciences (NCATS), 2021)
# Among all 48,000 compounds or so, about 450 (0.94%) were called active. Not shown: some 19% with an inconclusive outcome. Calls follow the shape of the dose curve; as a rule, active = well fitted inhibition curve with a large enough effect; inconclusive = small, poorly fitted or top-dose-only effect; inactive = no such curve, though single readings can be large or run the other way. This is one part of the list.
# Experiment: Primary qHTS for Identification of Small Molecule Inhibitors of Huntingtin Promoter Activity; also: nearly all actives have a fitted effect of over 50% in size
# Settings: HEK293 HTT promoter firefly luciferase reporter (activity 0% = vehicle and -100% = no light), 24 h; series mostly up to 57.5 µM; activity change, negative = inhibition: at the top concentration
# Procedure, shortened: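 Firefly luciferase signal from promoter-reporter HEK293 cells was scaled between vehicle (0%) and zero RLU (-100%). Compounds were tested at final concentrations of up to 57.5 uM over 24 h at 37 degrees C. PTC124 at 50 uM final served as control inhibitor.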
# Potency is read from the fitted curve at half-maximal effect.
Compound,"activity change, negative = inhibition",Potency
COCCCNC(=O)c1sc2nc3n(c(=O)c2c1C)CCC3,inactive: 30.9%,
CCOc1ccc(C2=NC(c3ccc(OC)cc3)=Nc3ccc(Cl)cc3N2)cc1,inactive: 57%,
COc1ccccc1CNC(=O)CN1C(=O)COc2ccc(S(=O)(=O)N3CCC(C)CC3)cc21,inactive: -3.18%,
O=C(Cn1cc(S(=O)(=O)N2CCCC2)c(S(=O)(=O)N2CCCC2)c1)Nc1cccc(F)c1,inactive: -8.75%,
CCc1ccc(NC(=O)C(C)n2nnc3sc(-c4ccccc4)cc3c2=O)cc1 (configuration not stated),inactive: 15%,
COc1ccc(NC(=O)/C(C#N)=C/c2cc(C)n(-c3ccc(F)cc3)c2C)cc1,inactive: 5.1%,
CC(C)C(=O)N(Cc1ccccc1)S(=O)(=O)c1ccc2c(c1)oc(=O)n2C,inactive: -10.2%,
Cc1ccc(-n2c(=O)c3c4c(sc3n(Cc3cccc(Cl)c3)c2=O)CCC4)cc1C,inactive: -22.5%,
Cc1nc2nc(SCC(=O)O)nn2c(C)c1Cc1c(F)cccc1Cl,inactive: -8.91%,
Cc1ccc(CN(C(=O)COc2ccc(Cl)c(C)c2)C2CCS(=O)(=O)C2)o1 (configuration not stated),inactive: -28.5%,
Cc1ccc(Cl)cc1NC(=O)Cn1c(=O)n(CCCS(=O)(=O)C2CCCCC2)c(=O)c2ccccc21,inactive: -19.5%,
CCOc1ccc(NC(=O)Cn2cc(C(=O)c3ccc(CC)cc3)c(=O)c3cc(OC)c(OC)cc32)cc1,inactive: -1.79%,
COc1ccc(S(=O)(=O)NCCCO)cc1-c1nnc2c3ccccc3c(C)nn12,inactive: -11.7%,
COc1ccc2cc3cc(C(=O)N4CCN(c5cccc(Cl)c5)CC4)sc3nc2c1,inactive: -0.584%,
COc1ccc(NS(=O)(=O)c2ccc3c(c2)CCN3C(=O)CCC(=O)O)cc1Cl,inactive: -13.2%,
CCc1ccc(-n2c(=O)c3sc4ccccc4c3n(CC(=O)NC3CCCCC3)c2=O)cc1,inactive: -5.85%,
Cc1ccc(NC(=O)Cn2nc(-c3ccncc3)ccc2=O)cc1Cl,inactive: -5.91%,
CC(C)CCNC(=O)CSc1nc2ccccc2nc1Cc1ccccc1,inactive: 2.4%,
Cc1cc(NC(=O)CCS(=O)(=O)c2cc(Br)cc3c2N(C(=O)C2CC2)CC3)ccc1Br,inactive: -18.1%,
COc1cc2c(cc1OC)C(COc1ccc3c(C)cc(=O)oc3c1)N(C(=O)C(C)C)CC2 (configuration not stated),inactive: -10.9%,
CCOC(=O)c1nc(Nc2ccc(C(C)=O)cc2)c2ccccc2n1,inactive: -19.6%,

Compound,"activity change, negative = inhibition",Potency
O=C(Nc1c(C(=O)Nc2ccc(F)cc2)oc2ccccc12)c1cc2ccccc2o1,inactive: 5.66%,
COc1ccc(Cn2c(=O)c3cccnc3n(CC(=O)Nc3ccc(C)c(F)c3)c2=O)cc1,inactive: 7.34%,
Cc1cc(Oc2c(C(F)(F)F)oc3c(CN4CCC(C)CC4)c(O)ccc3c2=O)cc(C)c1Cl,inactive: -33.6%,
Cc1ccc(C)c(CNC(=O)c2ccc3c(c2)nc2n3CCCCC2)c1,inactive: 9.69%,
C[C@H](NC(=O)OC(C)(C)C)c1nnc(SCc2c(F)cccc2Cl)o1,inactive: -32.1%,
O=C(O)CP(=O)(O)O,inactive: 1.13%,
CCc1ccc(NC(=O)Cn2nc3c4ccccc4n(Cc4ccccc4)cc-3c2=O)cc1,inactive: -7.72%,
COCCCNC(=O)c1cc2c(=O)oc3ccc(C)cc3c2s1,inactive: -17%,
CCc1nc2ccc(C(=O)N3CCN(c4cccc(C)c4C)CC3)cc2nc1CC,inactive: -10.4%,
Cc1ccc(-c2nc3c4ccccc4[nH]c(=O)n3n2)cc1,inactive: 63.8%,
CCOc1ccc(-c2cc(OC(=O)c3ccc(OC)cc3)c3c(C)oc(C)c3c(=O)c2)cc1,inactive: -25.3%,
O=C1CC(c2cccc(O)c2)c2c(nc(SCc3ccccc3F)[nH]c2=O)N1 (configuration not stated),inactive: -4.11%,
CCOc1ccc(C(=O)N(Cc2sccc2C)C2CCS(=O)(=O)C2)cc1 (configuration not stated),inactive: -17.6%,
CCn1c2ccccc2c2cc(CN3CCN(Cc4ccccc4Cl)CC3)ccc21,inactive: -14.3%,
COc1cccc(NC(=O)CSc2nc3cc(OC)c(OC)cc3c3nc(-c4ccccc4)nn23)c1,inactive: 4.02%,
COc1cc(OC)c(NC2(c3ccccc3)C(=O)c3ccccc3C2=O)cc1Cl,inactive: -5.02%,
CC(=O)Nc1ccc(S(=O)(=O)Nc2cc(C)on2)cc1,inactive: 10.2%,
Cc1ccc(CN2CCCN(CC(=O)Nc3ccc(C)cc3C)S2(=O)=O)cc1,inactive: -3.46%,
O=c1c(-c2cc(-c3ccccc3)nc3c2COc2ccc(Cl)cc2-3)coc2ccc(F)cc12,inactive: -7.34%,
O=C(Nc1nc2n(n1)C(c1ccc(F)cc1)C=C(c1ccccc1)N2)c1ccco1 (configuration not stated),inactive: -21.1%,
Cc1c(Cl)cccc1NC(=O)c1ccc2c(c1)CCN2S(=O)(=O)c1ccccc1,inactive: -18.3%,

Compound,"activity change, negative = inhibition",Potency
CN(C)CCNc1ncnc2c1cnn2-c1cccc(Cl)c1,inactive: -2.09%,
NC1CCN(c2nc3c(cc2F)c(=O)c(C(=O)O)cn3-c2ccc(F)cc2F)C1 (configuration not stated),inactive: 23.2%,
CN(C)c1ccc(C(CNC(=O)c2ccccc2C(F)(F)F)N2CCOCC2)cc1 (configuration not stated),inactive: 7.14%,
COc1ccc(CNC(=O)C2CCCN(S(=O)(=O)c3cccc4nsnc34)C2)cc1 (configuration not stated),inactive: -29%,
Cn1nnnc1SCCCNCc1cc(Cl)ccc1OCc1ccc(F)cc1,inactive: -28.1%,
COC(=O)c1c(NC(=O)c2nc(SCc3ccc(F)cc3)ncc2Cl)sc2c1CCCC2,inactive: -21.2%,
Cc1nn2c(=O)cc(COC(=O)Cc3ccccc3)nc2s1,inactive: -5.59%,
CCNC(=O)/C=C/c1cccc(Br)c1,inactive: 14.7%,
CCC1CN(C(=O)N2CCC(C(=O)Nc3ccccc3F)CC2)c2ccccc2O1 (configuration not stated),inactive: -13.9%,
CCCC(=O)Nc1ccccc1OCc1cc(=O)n2cc(C)ccc2n1,inactive: -5.72%,
COc1ccc(NC(=O)CN2C(=O)COc3ccc(S(=O)(=O)N4CCCCCC4)cc32)cc1,inactive: -27.7%,
Cc1ccc(C)c(N2CCN(c3c(CN4CCCC4)c(=O)oc4ccccc34)CC2)c1,inactive: 4.58%,
O=C(Nc1cccc(Cl)c1Cl)c1cc(S(=O)(=O)NCc2ccc3c(c2)OCO3)ccc1F,inactive: -9.5%,
CCc1ccc(S(=O)(=O)N(C(=O)c2ccncc2)c2ccc3oc(C)c(C(=O)OC)c3c2)cc1,,active: 12.6 µM
COc1ccc(CC(=O)N2CCc3cc(OC)c(OC)cc3C2COc2cc(C)cc(C)c2)cc1OC (configuration not stated),inactive: -23.9%,
Cc1nn(S(=O)(=O)c2ccc(Br)cc2)c(C)c1S(=O)(=O)N1CCCCCC1,inactive: -4.97%,
Cc1cc(C)cc(NC(=O)CCS(=O)(=O)c2cccc3nsnc23)c1,inactive: -0.75%,
CCc1ccc(N(CC)C(=O)c2cc3c(=O)oc4ccc(C)cc4c3s2)cc1,inactive: 6.5%,
COc1cccc(NC(=O)C(=O)NCC(c2ccc3c(c2)OCO3)N2CCN(C)CC2)c1 (configuration not stated),inactive: 88%,
Cc1cccc(C)c1Nc1nn2c(=O)c3cc4c(cc3nc2s1)OCO4,inactive: -6.67%,
